Changes are numbered by the printed parent chain; changes in the protein carry UniProt numbers. The list shows a part of the results.

Here are results for 31 molecules from paper PMC9911399, “Two distinct binding modes provide the RNA-binding protein RbFox with extraordinary sequence specificity”.

To fix the notation:
T1: RBFOX1 RRM (Homo sapiens, UniProt Q9NWB1 109-208)
T1 sequence: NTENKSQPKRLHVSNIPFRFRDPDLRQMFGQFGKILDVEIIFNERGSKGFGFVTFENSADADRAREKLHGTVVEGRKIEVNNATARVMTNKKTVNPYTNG

B1: ACGUGUA (DNA:RNA)
RNA: GGGAGACCGGAAUUCAGAUUGUCCACGUGUAUUAAAUCCCGUCGUAGCCACCA
DNA 1: CAATCTGAATTCCGGTCTCCC
DNA 2: TGGTGGCTACGACGGGATT
B2: GGAUAGA (DNA:RNA)
RNA: B1 RNA with A25G, C26G, G27A, G29A, U30G
DNA 1: CAATCTGAATTCCGGTCTCCC
DNA 2: TGGTGGCTACGACGGGATT
B3: ACUAGUC (DNA:RNA)
RNA: B1 RNA with G27U, U28A, A31C
DNA 1: CAATCTGAATTCCGGTCTCCC
DNA 2: TGGTGGCTACGACGGGATT
B4: UUAUUCA (DNA:RNA)
RNA: B1 RNA with A25U, C26U, G27A, G29U, U30C
DNA 1: CAATCTGAATTCCGGTCTCCC
DNA 2: TGGTGGCTACGACGGGATT
B5: UAUGAAC (DNA:RNA)
RNA: GGGAGACCGGAAUUCAGAUUGUCCUAUGAACUUAAAUCCCGUCGUAGCCACCA
DNA 1: CAATCTGAATTCCGGTCTCCC
DNA 2: TGGTGGCTACGACGGGATT
B6: ACUCGAC (DNA:RNA)
RNA: B1 RNA with G27U, U28C, U30A, A31C
DNA 1: CAATCTGAATTCCGGTCTCCC
DNA 2: TGGTGGCTACGACGGGATT
B7: GCGCAGC (DNA:RNA)
RNA: B1 RNA with A25G, U28C, G29A, U30G, A31C
DNA 1: CAATCTGAATTCCGGTCTCCC
DNA 2: TGGTGGCTACGACGGGATT
B8: UGAUGCG (DNA:RNA)
RNA: B1 RNA with A25U, C26G, G27A, U30C, A31G
DNA 1: CAATCTGAATTCCGGTCTCCC
DNA 2: TGGTGGCTACGACGGGATT
B9: CGGCUAG (DNA:RNA)
RNA: B1 RNA with A25C, C26G, U28C, G29U, U30A, A31G
DNA 1: CAATCTGAATTCCGGTCTCCC
DNA 2: TGGTGGCTACGACGGGATT
B10: AAGGGGG (DNA:RNA)
RNA: B1 RNA with C26A, U28G, U30G, A31G
DNA 1: CAATCTGAATTCCGGTCTCCC
DNA 2: TGGTGGCTACGACGGGATT
B11: AUUGUUG (DNA:RNA)
RNA: B1 RNA with C26U, G27U, U28G, G29U, A31G
DNA 1: CAATCTGAATTCCGGTCTCCC
DNA 2: TGGTGGCTACGACGGGATT
B12: UUAGGCG (DNA:RNA)
RNA: B5 RNA with A26U, U27A, A29G, A30C, C31G
DNA 1: CAATCTGAATTCCGGTCTCCC
DNA 2: TGGTGGCTACGACGGGATT
B13: GGCGGGA (DNA:RNA)
RNA: B1 RNA with A25G, C26G, G27C, U28G, U30G
DNA 1: CAATCTGAATTCCGGTCTCCC
DNA 2: TGGTGGCTACGACGGGATT
B14: UUCGCUG (DNA:RNA)
RNA: B5 RNA with A26U, U27C, A29C, A30U, C31G
DNA 1: CAATCTGAATTCCGGTCTCCC
DNA 2: TGGTGGCTACGACGGGATT
B15: AAUCCUU (DNA:RNA)
RNA: B1 RNA with C26A, G27U, U28C, G29C, A31U
DNA 1: CAATCTGAATTCCGGTCTCCC
DNA 2: TGGTGGCTACGACGGGATT
B16: AUCUACC (DNA:RNA)
RNA: B1 RNA with C26U, G27C, G29A, U30C, A31C
DNA 1: CAATCTGAATTCCGGTCTCCC
DNA 2: TGGTGGCTACGACGGGATT
B17: CUCACGA (DNA:RNA)
RNA: B1 RNA with A25C, C26U, G27C, U28A, G29C, U30G
DNA 1: CAATCTGAATTCCGGTCTCCC
DNA 2: TGGTGGCTACGACGGGATT
B18: AGUGCUG (DNA:RNA)
RNA: B1 RNA with C26G, G27U, U28G, G29C, A31G
DNA 1: CAATCTGAATTCCGGTCTCCC
DNA 2: TGGTGGCTACGACGGGATT
B19: GCAUCAA (DNA:RNA)
RNA: B1 RNA with A25G, G27A, G29C, U30A
DNA 1: CAATCTGAATTCCGGTCTCCC
DNA 2: TGGTGGCTACGACGGGATT
B20: UCCUUUA (DNA:RNA)
RNA: B1 RNA with A25U, G27C, G29U
DNA 1: CAATCTGAATTCCGGTCTCCC
DNA 2: TGGTGGCTACGACGGGATT
B21: CUACAAA (DNA:RNA)
RNA: B5 RNA with U25C, A26U, U27A, G28C, C31A
DNA 1: CAATCTGAATTCCGGTCTCCC
DNA 2: TGGTGGCTACGACGGGATT
B22: ACAGAGC (DNA:RNA)
RNA: B5 RNA with U25A, A26C, U27A, A30G
DNA 1: CAATCTGAATTCCGGTCTCCC
DNA 2: TGGTGGCTACGACGGGATT
B23: AGCCCGA (DNA:RNA)
RNA: B1 RNA with C26G, G27C, U28C, G29C, U30G
DNA 1: CAATCTGAATTCCGGTCTCCC
DNA 2: TGGTGGCTACGACGGGATT
B24: GGCGCAA (DNA:RNA)
RNA: B5 RNA with U25G, A26G, U27C, A29C, C31A
DNA 1: CAATCTGAATTCCGGTCTCCC
DNA 2: TGGTGGCTACGACGGGATT
B25: AGACCGU (DNA:RNA)
RNA: B1 RNA with C26G, G27A, U28C, G29C, U30G, A31U
DNA 1: CAATCTGAATTCCGGTCTCCC
DNA 2: TGGTGGCTACGACGGGATT
B26: CCUGGGC (DNA:RNA)
RNA: B5 RNA with U25C, A26C, A29G, A30G
DNA 1: CAATCTGAATTCCGGTCTCCC
DNA 2: TGGTGGCTACGACGGGATT
B27: AGACCAG (DNA:RNA)
RNA: B1 RNA with C26G, G27A, U28C, G29C, U30A, A31G
DNA 1: CAATCTGAATTCCGGTCTCCC
DNA 2: TGGTGGCTACGACGGGATT
B28: ACGUAAC (DNA:RNA)
RNA: B1 RNA with G29A, U30A, A31C
DNA 1: CAATCTGAATTCCGGTCTCCC
DNA 2: TGGTGGCTACGACGGGATT
B29: AGUUGUG (DNA:RNA)
RNA: B1 RNA with C26G, G27U, A31G
DNA 1: CAATCTGAATTCCGGTCTCCC
DNA 2: TGGTGGCTACGACGGGATT
B30: CACUGCU (DNA:RNA)
RNA: B1 RNA with A25C, C26A, G27C, U30C, A31U
DNA 1: CAATCTGAATTCCGGTCTCCC
DNA 2: TGGTGGCTACGACGGGATT
B31: UGUGGAU (DNA:RNA)
RNA: B5 RNA with A26G, A29G, C31U
DNA 1: CAATCTGAATTCCGGTCTCCC
DNA 2: TGGTGGCTACGACGGGATT

This assay concerns the target T1, RBFOX1 RRM. As to the kind of experiment: EMSA; HiTS-Eq, 1 nM pool, 10 min; buffer printed only for the single-RNA assays: 10 mM Tris pH 7.5, 150 mM NaCl, 3.4 mM EDTA, 0.001% NP-40, 30 C. To be noted: tags: His6 N-terminal (pET28a); label: 5' 32P. Summed up: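 Purified RbFox RRM, wild type or mutant, was incubated for 10 min in 50 µL with 1 nM of a 5′-radiolabelled RNA pool carrying 7 randomized nucleotides, whose flanks were annealed to DNA oligonucleotides, over a series of increasing protein concentrations. Unbound RNA was resolved on 8% native PAGE, cut out, reverse-transcribed, barcoded by PCR and sequenced on an Illumina HiSeq 2500. Relative association constants were derived from changes in read counts for each RNA species versus the control reaction and normalised to the cognate motif.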
Background: Mobility shift assays separate free from complexed probe on a gel.
On to B1, for which the binding signal is 0.0121 KA relative to UGCAUGU.
Consider B2, for which the binding signal was 0.0197 KA relative to UGCAUGU.
For the molecule B3, the binding signal was 0.00647 KA relative to UGCAUGU.
For the molecule B4, the binding signal is 0.00837 KA relative to UGCAUGU.
As for B5, the binding signal is 0.0117 KA relative to UGCAUGU.
The figure for B6 is 0.00532 KA relative to UGCAUGU; for B7 it is 0.0124 KA relative to UGCAUGU.
For B8 the value was 0.0204 KA relative to UGCAUGU; for B9, 0.02 KA relative to UGCAUGU.
As to B10, the binding signal was 0.0117 KA relative to UGCAUGU.
The figure for B11 is 0.0192 KA relative to UGCAUGU.
Consider B12, for which the binding signal is 0.0139 KA relative to UGCAUGU.
As to B13, the binding signal was 0.0172 KA relative to UGCAUGU.
With B14, the binding signal was 0.0215 KA relative to UGCAUGU.
Take B15: the binding signal is 0.00132 KA relative to UGCAUGU.
For the molecule B16, the binding signal is 0.000901 KA relative to UGCAUGU.
For B17 the value was 0.00443 KA relative to UGCAUGU; for B18, 0.0208 KA relative to UGCAUGU.
For the molecule B19, the binding signal is 0.0078 KA relative to UGCAUGU.
On to B20, for which the binding signal was 0.00187 KA relative to UGCAUGU.
Take B21: the binding signal was 0.00273 KA relative to UGCAUGU.
Turning to B22, the binding signal is 0.00408 KA relative to UGCAUGU.
For the molecule B23, the binding signal was 0.00979 KA relative to UGCAUGU.
Regarding B24, the binding signal was 0.00871 KA relative to UGCAUGU.
In the case of B25, the binding signal was 0.0106 KA relative to UGCAUGU.
With B26, the binding signal is 0.00806 KA relative to UGCAUGU.
For B27 the value was 0.00483 KA relative to UGCAUGU; for B28, 0.00521 KA relative to UGCAUGU; for B29, 0.0137 KA relative to UGCAUGU.
B30: the binding signal was 0.00744 KA relative to UGCAUGU.
On to B31, for which the binding signal was 0.0122 KA relative to UGCAUGU.
